# PMC12775950
# B1: GPRC5B: N30S (protein)
# parent chain: MFVASERKMRAHQVLTFLLLFVITSVASENASTSRGCGLDLLPQYVSLCDLDAIWGIVVEAVAGAGALITLLLMLILLVRLPFIKEKEKKSPVGLHFLFLLGTLGLFGLTFAFIIQEDETICSVRRFLWGVLFALCFSCLLSQAWRVRRLVRHGTGPAGWQLVGLALCLMLVQVIIAVEWLVLTVLRDTRPACAYEPMDFVMALIYDMVLLVVTLGLALFTLCGKFKRWKLNGAFLLITAFLSVLIWVAWMTMYLFGNVKLQQGDAWNDPTLAITLAASGWVFVIFHAIPEIHCTLLPALQENTPNYFDTSQPRMRETAFEEDVQLPRAYMENKAFSMDEHNAALRTAGFPNGSLGKRPSGSLGKRPSAPFRSNVYQPTEMAVVLNGGTIPTAPPSHTGRHLW
# Experiment: extracellular HiBiT surface luminescence, HEK293T
# Conditions: glycan lost; control: wild type
protein,measurement,value
B1,localisation_or_trafficking,no change
